# Results reported in the supplement of paper PMC11060735.
# Several values for one entry are separate records, joined by “and”; a condition that tells them apart may be missing. Equal values may be shown once. Where a name gives a salt, the structure may show the parent alone. In all, about 1,800 compounds went through this assay and about 50 (3%) showed activity. The list shows a part of the results.
# Test system: mouse p16Ink4a+/- lung fibroblasts (INKBRITE, bleomycin-injured)
# Assay: percentage of GFP+ (p16Ink4a+) fibroblasts among all cells in well; higher = less depletion of p16Ink4a+ cells, active = 20 or less
# Conditions: 1 µM; 3 days
# 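Further: fibroblasts sorted 14 days after bleomycin, GFP+ and GFP− mixed 1:1 in 384-well plates (GFP− as in-well control), imaged after Hoechst and NucView530 staining, reference wells lacked compound.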
row,Structure (SMILES),percentage of GFP+
1,CCCCOc1cc(C(=O)NCCN(CC)CC)c2ccccc2n1 [Cinchocaine],inactive: 47.9%
2,COc1ccc(-c2coc3cc(O)ccc3c2=O)cc1 [Formononetin],inactive: 41.6%
3,Nc1ccccc1NC(=O)c1ccc(CNc2nccc(-c3cccnc3)n2)cc1 [Mocetinostat],active: 12.6%
4,C/C(=C\C(=O)Nc1ccccc1C(=O)O)c1ccc2ccccc2c1,inactive: 30%
5,C#Cc1cccc(Nc2ncnc3cc(OCCOC)c(OCCOC)cc23)c1 [Erlotinib],active: 7.35%
6,C=CC[N+]1([C@H]2C[C@H]3[C@@H]4CC[C@H]5C[C@H](O)[C@@H](N6CCOCC6)C[C@]5(C)[C@H]4CC[C@]3(C)[C@H]2OC(C)=O)CCCC1 [Rocuronium],inactive: 54.9%
7,COc1c(C)c2c(c(O)c1C/C=C(\C)CCC(=O)O)C(=O)OC2 [Mycophenolic Acid],inactive: 25.9%
8,C[C@]12C=CC(=O)C=C1CC[C@@H]1[C@@H]2[C@@H](O)C[C@@]2(C)[C@H]1CC[C@]2(O)C(=O)CO [Prednisolone],inactive: 34.4%
9,CCCCNC(=O)NS(=O)(=O)c1ccc(C)cc1 [Tolbutamide],inactive: 46.3%
10,CN1C(C(=O)Nc2ccccn2)=C(O)c2sccc2S1(=O)=O [Tenoxicam],inactive: 39.1%
11,COc1cc(-c2ncn(/C=C\C(=O)OC(C)C)n2)cc(C(F)(F)F)c1,active: 14.1%
12,CO/C(O)=C1\C(C)=NC(C)=C(C(=O)OCCN2CCN(C(c3ccccc3)c3ccccc3)CC2)C1c1cccc([N+](=O)[O-])c1 (stereo unspecified) [Manidipine],inactive: 42.8% and inactive: 51.3%
13,O=c1c(O)c(-c2cc(O)c(O)c(O)c2)oc2cc(O)cc(O)c12 [Myricetin],inactive: 34.4%
14,O=C(O)c1cccc(-c2noc(-c3ccccc3F)n2)c1 [Ataluren],inactive: 45.4%
15,CCc1nc(N)nc(N)c1-c1ccc(Cl)cc1 [Pyrimethamine],inactive: 44.1%
16,Cc1cnc(C(=O)NCCc2ccc(S(=O)(=O)NC(=O)NC3CCCCC3)cc2)cn1 [Glipizide],inactive: 41.1%
17,O=C1C(Cl)=C(N2CCOCC2)C(=O)N1c1ccc(Cl)c(Cl)c1,inactive: 40.2%
18,CCOc1ccc2ccccc2c1C(=O)N[C@@H]1C(=O)N2[C@@H]1SC(C)(C)[C@@H]2C(=O)O [Nafcillin Sodium],inactive: 49.6%
19,O=C(O)c1ccccc1 [Benzoic Acid],inactive: 44.8%
20,CCOC(=O)C1=C(C)N=C(C)/C(=C(/O)OCC)C1c1ccccc1/C=C/C(=O)OC(C)(C)C (stereo unspecified) [Lacidipine],inactive: 45.2%
21,CC(=O)Nc1nc2c(Oc3cc(-c4ccc(C(F)(F)F)cc4)ncn3)cccc2s1,inactive: 55.4%
22,"O=C1c2ccccc2-c2[nH]nc3cccc1c23 [2,6-Dihydroanthra/1,9-Cd/Pyrazol-6-One]",inactive: 40.5%

row,Structure (SMILES),percentage of GFP+
1,COC(=O)Nc1ccc(-c2nc(N3CCOCC3)c3cnn(C4CCN(C(=O)OC)CC4)c3n2)cc1,inactive: 36.4%
2,Clc1ccc(COC(Cn2ccnc2)c2ccc(Cl)cc2Cl)cc1 (stereo unspecified) [Econazole],inactive: 39.9%
3,Cc1ccc(-c2c(-c3nn(C)c4ncnc(N5CC[C@H](N6CCCCC6)C5)c34)cnn2C)cc1,inactive: 45.1%
4,CC1(C)O[C@@H]2C[C@H]3[C@@H]4C[C@H](F)C5=CC(=O)C=C[C@]5(C)[C@@]4(F)[C@@H](O)C[C@]3(C)[C@]2(C(=O)CO)O1 [Fluocinolone Acetonide],inactive: 38.9%
5,CC[C@@H](C)Nc1cc(C(=O)NC2CC3CCC(C2)N3c2ccc(C(=O)C3CC3)cn2)c(C)cc1C(N)=O (stereo partly specified),active: 5.49%
6,Cc1nc(NC(=O)N2CCC[C@H]2C(N)=O)sc1-c1csc(C(C)(C)C)n1,inactive: 40.6%
7,CC(=O)/N=c1/sc(S(N)(=O)=O)nn1C [Methazolamide],inactive: 43.3%
8,COc1ccc(-n2c(C)c([N+](=O)[O-])c3ccc(O)cc32)cc1,inactive: 45.5%
9,CCCCCCCCc1ccc(CCC(N)(CO)CO)cc1 [Fingolimod],inactive: 26.5%
10,Oc1ncc(F)c(O)n1 [Fluorouracil],inactive: 35.8%
11,COc1ccc(-c2cc(=O)c3c(O)cc(O)cc3o2)cc1O [Diosmetin],inactive: 42.4%
12,CN(C)Cc1c(C(=O)NCCOc2ccc(C(=O)NO)cc2)oc2ccccc12 [Abexinostat],inactive: 32.7%
13,Cc1cc(CN2CCN(c3c(Br)cnc4[nH]c(-c5ccc(N6CCN(C)CC6)cc5)nc34)CC2)no1,inactive: 44%
14,O=C1C[C@@H](c2ccc(O)cc2)Oc2cc(O)cc(O)c21 [Naringenin],inactive: 44.1%
15,COc1cnc(NS(=O)(=O)c2ccc(N)cc2)nc1 [Sulfameter],inactive: 45.9%
16,CC(C)c1cc(C(=O)N2Cc3ccc(CN4CCN(C)CC4)cc3C2)c(O)cc1O [Onalespib],active: 9.46%
17,"CC(=O)O[C@H]1C(=O)[C@@]2(C)C([C@H](OC(=O)c3ccccc3)[C@]3(O)C[C@H](OC(=O)[C@H](O)[C@@H](NC(=O)c4ccccc4)c4ccccc4)C(C)=C1C3(C)C)[C@]1(OC(C)=O)CO[C@@H]1C[C@@H]2O (stereo partly specified) [Taxol, Paclitaxel]",inactive: 35.8%
18,C[C@H]1[C@H](C)CC[C@]2(C(=O)O)CC[C@]3(C)C(=CC[C@@H]4[C@@]5(C)C[C@@H](O)[C@H](O)[C@@](C)(CO)[C@@H]5CC[C@]43C)[C@H]12 [Asiatic Acid],inactive: 45.9%
19,C[C@@H]1COC(Nc2ccc3ncnc(Nc4ccc(OCc5nccs5)c(Cl)c4)c3c2)=N1 [Varlitinib],inactive: 50.6%
20,CCOC(=O)C1=C[C@@H](OC(CC)CC)[C@H](NC(C)=O)[C@@H](N)C1 [Oseltamivir],inactive: 40.5%
21,O=c1[nH]c(=O)n([C@H]2CCCO2)cc1F,inactive: 33.8%
22,CC(C)(C(=O)O)c1ccc(C(O)CCCN2CCC(C(O)(c3ccccc3)c3ccccc3)CC2)cc1 (stereo unspecified) [Fexofenadine],inactive: 45%

row,Structure (SMILES),percentage of GFP+
1,"CC(=O)[C@]1(O)Cc2c(O)c3c(c(O)c2[C@@H](O[C@H]2C[C@H](N)[C@H](O)[C@H](C)O2)C1)C(=O)c1ccccc1C3=O [Idarubicin, Idarubicin Hydrochloride]",active: 19.9%
2,Nc1ccc(C(=O)Nc2cccc(-c3nc(N4CCOCC4)c4oc5ncccc5c4n3)c2)cn1,inactive: 51%
3,C[C@]12CCC(=O)C=C1[C@@H]1C[C@@H]1[C@H]1[C@@H]3[C@@H]4C[C@@H]4[C@@]4(CCC(=O)O4)[C@@]3(C)CC[C@@H]12 [Drospirenone],inactive: 39.8%
4,CC(C)(OCc1nn(Cc2ccccc2)c2ccccc12)C(=O)O [Bindarit],inactive: 45.3%
5,CC(=O)Oc1ccccc1C(=O)Nc1ncc([N+](=O)[O-])s1 [Nitazoxanide],inactive: 38.4%
6,O=C(CCCS)NC1CCN(C(=O)COc2ccc(Cl)cc2Cl)CC1 [K-Ras(G12C) inhibitor 6],inactive: 47.3%
7,"COc1cc2nc(N(C)CCCNC(=O)C3CCCO3)nc(N)c2cc1OC (stereo unspecified) [Alfuzosin Hydrochloride, Alfuzosin]",inactive: 32.6%
8,O=C(Nc1ccccc1)c1ccccc1O [Salicylanilide],inactive: 55.1%
9,N#CC[C@H](C1CCCC1)n1cc(-c2ncnc3[nH]ccc23)cn1 [Ruxolitinib],inactive: 44.6%
10,Cc1noc(NS(=O)(=O)c2ccc(N)cc2)c1C [Sulfisoxazole],inactive: 44.1%
11,c1ccc([C@H]2CN3CCSC3=N2)cc1 [Levamisole],inactive: 48.7%
12,C=C[C@@]1(C)CC(=O)[C@]2(O)[C@@]3(C)[C@@H](O)CCC(C)(C)[C@@H]3[C@H](O)[C@H](OC(C)=O)[C@@]2(C)O1 [Colforsin],inactive: 47.6%
13,NC1=NCC2c3ccccc3Cc3ccccc3N12 (stereo unspecified) [Epinastine],inactive: 48.1%
14,O=C(NC(NC(=S)Nc1ccc(F)c([N+](=O)[O-])c1)C(Cl)(Cl)Cl)C(c1ccccc1)c1ccccc1 (stereo unspecified),inactive: 43.1%
15,CC(=O)Nc1cccc2c1c(Sc1ccc(Cl)cc1)c(C)n2CC(=O)O,inactive: 44.6%
16,C=CC(=O)Nc1cccc(Nc2nc(Nc3ccc(N4CCN(C(C)=O)CC4)cc3OC)ncc2C(F)(F)F)c1,inactive: 36%
17,CCS(=O)(=O)Nc1ccc2[nH]c(O)c(/C(=N/c3ccc(CN4CCCCC4)cc3)c3ccccc3)c2c1 [Hesperadin],inactive: 21.4%
18,O=C(c1ccc(/C=C/c2[nH]nc3ccccc23)cc1)N1CCNCC1,inactive: 37.7%
19,CCNC1=N[C@@H]2[C@@H](O)[C@H](O)[C@@H](CO)O[C@@H]2S1 [Thiamet G],inactive: 56.9%
20,CN1CCN2c3ccccc3Cc3ccccc3C2C1 (stereo unspecified) [Mianserin],inactive: 41.5%
21,C[C@H]1O[C@@H](n2cc(F)c(=O)[nH]c2=O)[C@H](O)[C@@H]1O [Doxifluridine],inactive: 37.5%
22,CN(C)CCC(c1ccc(Br)cc1)c1ccccn1 (stereo unspecified) [Brompheniramine],inactive: 35.9%

row,Structure (SMILES),percentage of GFP+
1,CC(C)c1c(C(=O)Nc2ccccc2)c(-c2ccccc2)c(-c2ccc(F)cc2)n1CC[C@@H](O)C[C@@H](O)CC(=O)O [Atorvastatin],inactive: 41.6%
2,COc1ccc2c(Oc3ccc(NC(=O)c4c(C)n(CC(C)(C)O)n(-c5ccccc5)c4=O)nc3)ccnc2c1,inactive: 32.7%
3,CC1(C)SC2C(NC(=O)[C@H](NC(=O)N3CCNC3=O)c3ccccc3)C(=O)N2C1C(=O)O (stereo partly specified) [Azlocillin sodium salt],inactive: 51.2%
4,C[C@@H](N)[C@H]1CC[C@H](C(=O)Nc2ccncc2)CC1,inactive: 45.5%
5,O=C(O)c1ccc(Nc2ncc3c(n2)-c2ccc(Cl)cc2C(c2c(F)cccc2F)=NC3)cc1,inactive: 31.1%
6,COc1ncc(-c2ccc3nccc(-c4ccnnc4)c3c2)cc1NS(=O)(=O)c1ccc(F)cc1F,inactive: 21.6%
7,Cc1ccc2c(Cl)cc(Cl)c(O)c2n1 [Chlorquinaldol],inactive: 45%
8,CC1(C)O[C@@H]2C[C@H]3[C@@H]4CCC5=CC(=O)C=C[C@]5(C)[C@H]4[C@@H](O)C[C@]3(C)[C@]2(C(=O)CO)O1 [Desonide],inactive: 46.7%
9,CNC(=O)c1ccc2cc(C3(O)CCn4cncc43)ccc2c1 (stereo unspecified) [Orteronel],inactive: 34.6%
10,Cc1ccccc1C(C(=O)NC1CCCCC1)N(C(=O)Cn1ccnc1C)c1cccc(F)c1 (stereo unspecified),inactive: 46.1%
11,COCCn1c2c([n+](Cc3cnccn3)c1C)C(=O)c1ccccc1C2=O [Sepantronium Bromide],inactive: 25.5%
12,COc1ccc(C[C@H](C)NC[C@@H](O)c2ccc(O)c(NC=O)c2)cc1 [Formoterol Fumarate Dihydrate],inactive: 46.6%
13,O=C(O)c1cc(-c2ccccc2)nc2ccccc12 [Cinchophen],inactive: 46.7%
14,COc1ccc2cc1Oc1ccc(cc1)C[C@H]1c3c(cc4c(c3Oc3cc5c(cc3OC)CCN(C)[C@@H]5C2)OCO4)CCN1C [Cepharanthine],inactive: 57.3%
15,O=C1c2ccccc2C(=O)C1c1ccccc1 [Phenindione],inactive: 43.9%
16,CN(C)C(=O)c1ccc(S(=O)(=O)c2ccc(NC(=O)[C@@](C)(O)C(F)(F)F)c(Cl)c2)cc1,inactive: 51.7%
17,CC(N)C12CC3CC(CC(C3)C1)C2 (stereo unspecified) [Rimantadine],inactive: 38.6%
18,C/C=C1/[C@H]2C=C(C)C[C@]1(N)c1ccc(O)nc1C2 [(-)-Huperzine A (HupA)],inactive: 45.8%
19,COc1ccc(C[C@@H]2c3cc(OC)c(OC)cc3CC[N@+]2(C)CCC(=O)OCCCCCOC(=O)CC[N@@+]2(C)CCc3cc(OC)c(OC)cc3[C@H]2Cc2ccc(OC)c(OC)c2)cc1OC [Cisatracurium Besylate],inactive: 38.1%
20,CCOC(=O)c1c(C)n(C)c2ccc(O)cc12 [Mecarbinate],inactive: 37.4%
